The supplement of paper PMC3334620
In all, about 33,000 sequences were measured (“E-score (-0.5 to 0.5)”: median about -0.017, highest 2% from about 0.3 on). Some of the results follow.

molecular target: T1, Sut1 (UniProt P53032); assay: PBM E-score (8-mer binding enrichment) (E-score (-0.5 to 0.5)); higher = stronger / more preferred TF binding; most listed sequences are background and not binding sites; settings: protein concentration: 200 nM; construct: GST-full length
T1 sequence: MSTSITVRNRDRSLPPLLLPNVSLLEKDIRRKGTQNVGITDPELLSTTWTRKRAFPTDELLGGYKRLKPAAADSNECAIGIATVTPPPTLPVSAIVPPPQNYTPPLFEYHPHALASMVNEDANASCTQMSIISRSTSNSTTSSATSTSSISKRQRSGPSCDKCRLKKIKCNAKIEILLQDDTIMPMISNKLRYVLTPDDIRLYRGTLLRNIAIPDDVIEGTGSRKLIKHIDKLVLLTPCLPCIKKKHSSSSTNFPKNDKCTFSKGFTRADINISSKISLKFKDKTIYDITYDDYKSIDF
In short: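 GST-tagged yeast TFs (full-length or DNA-binding domain) were made by PURExpress in vitro transcription/translation and applied at about 100-200 nM to universal all-10-mer Agilent arrays. The arrays were made double-stranded by primer extension, on fresh or once-stripped slides. Bound protein was detected with fluorescent anti-GST, and scans were normalised with masliner. Each ungapped eight-base word, pooled with its reverse complement, received an E-score (modified Wilcoxon-Mann-Whitney statistic) from the Universal PBM Analysis Suite.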

Which “PBM E-score” value does the source give for GTACTTGA here?
Its value is 0.0573.

For CGCGGCAA, which “PBM E-score” value is on record?
Its value is 0.0233.

How did the “PBM E-score” value turn out when ATTTCATA was run?
The value was 0.226.

ACTACATG was tested. Which “PBM E-score” value did it give?
Its value is 0.136.

With CGTTGCTA as the sequence, how does the “PBM E-score” value read?
Its value is -0.00565.

Which “PBM E-score” value does the source give for AGTTCGTG here?
The value was -0.0943.

AGCTATCG was tested. Which “PBM E-score” value did it give?
The value was -0.181.

For CGTGTTGA, which “PBM E-score” value is on record?
The value was 0.0354.

For CTTAACGA, which “PBM E-score” value is on record?
The value was 0.177.

With AGCTCACT as the sequence, how does the “PBM E-score” value read?
The value was -0.0799.

With CCAGCCAA as the sequence, how does the “PBM E-score” value read?
The value was -0.0941.

For AGGTGCCG, which “PBM E-score” value is on record?
Its value is -0.0892.

Which “PBM E-score” value does the source give for GCCGAAGC here?
The value was 0.0147.

With ATGCCCAG as the sequence, how does the “PBM E-score” value read?
Its value is -0.129.

CAGTAAGC was tested. Which “PBM E-score” value did it give?
Its value is -0.0843.

Which “PBM E-score” value does the source give for CGCTAAAC here?
Its value is 0.0389.

With CCGTAGAG as the sequence, how does the “PBM E-score” value read?
The value was -0.0905.

How did the “PBM E-score” value turn out when CGGAAGTA was run?
Its value is 0.111.

For GATAATAA, which “PBM E-score” value is on record?
Its value is 0.234.

With CGGGCATC as the sequence, how does the “PBM E-score” value read?
Its value is -0.286.

How did the “PBM E-score” value turn out when GATATTGC was run?
The value was -0.043.

CCCCACCG was tested. Which “PBM E-score” value did it give?
Its value is -0.0479.

AATGAGCA was tested. Which “PBM E-score” value did it give?
The value was 0.0424.

How did the “PBM E-score” value turn out when AGCCCCAG was run?
Its value is -0.149.

Which “PBM E-score” value does the source give for GAAAACCC here?
Its value is -0.0463.

For CGTTCTTC, which “PBM E-score” value is on record?
Its value is -0.0254.

For GCGAAGAC, which “PBM E-score” value is on record?
Its value is -0.0548.

How did the “PBM E-score” value turn out when GTTCACCA was run?
Its value is -0.057.

Which “PBM E-score” value does the source give for AATTCATC here?
Its value is 0.0609.

With ACAGGTTA as the sequence, how does the “PBM E-score” value read?
The value was -0.176.

How did the “PBM E-score” value turn out when CCCAACCA was run?
The value was -0.0292.

ACGGGAGA was tested. Which “PBM E-score” value did it give?
Its value is -0.0376.

How did the “PBM E-score” value turn out when ATTCAAAC was run?
Its value is 0.226.

Which “PBM E-score” value does the source give for AGTAGTCG here?
The value was -0.0051.

For ATGTCCAA, which “PBM E-score” value is on record?
The value was 0.0958.

Which “PBM E-score” value does the source give for TATGCTCA here?
The value was 0.0591.

TGCGTAAA was tested. Which “PBM E-score” value did it give?
Its value is 0.00721.

How did the “PBM E-score” value turn out when GCTGTGAA was run?
Its value is -0.111.

CCTTGCAA was tested. Which “PBM E-score” value did it give?
Its value is -0.285.

For ATAGTTGG, which “PBM E-score” value is on record?
Its value is -0.0612.

How did the “PBM E-score” value turn out when AGTCCGAA was run?
Its value is 0.49.

Which “PBM E-score” value does the source give for AATAAGAG here?
Its value is 0.177.

For ACCGGGAC, which “PBM E-score” value is on record?
Its value is 0.0957.

GTGACGAA was tested. Which “PBM E-score” value did it give?
The value was -0.0161.

CCCAAGGG was tested. Which “PBM E-score” value did it give?
Its value is -0.376.

How did the “PBM E-score” value turn out when AGGAGTAC was run?
The value was -0.106.

CACCATTC was tested. Which “PBM E-score” value did it give?
Its value is -0.0539.

ACCAATGA was tested. Which “PBM E-score” value did it give?
The value was 0.0555.

AATTTTAT was tested. Which “PBM E-score” value did it give?
The value was 0.317.

For ACCATGCT, which “PBM E-score” value is on record?
Its value is -0.126.

CAAGTTTC was tested. Which “PBM E-score” value did it give?
The value was 0.11.

Which “PBM E-score” value does the source give for CTAGCTGC here?
The value was -0.239.

Which “PBM E-score” value does the source give for GGCTGCTA here?
The value was -0.114.

How did the “PBM E-score” value turn out when CCGCCCTC was run?
Its value is -0.162.

With GCACTAGC as the sequence, how does the “PBM E-score” value read?
Its value is -0.242.

GACCAATA was tested. Which “PBM E-score” value did it give?
The value was -0.0611.

With AGTGCCAT as the sequence, how does the “PBM E-score” value read?
The value was -0.0832.

How did the “PBM E-score” value turn out when CCGTCGGA was run?
Its value is 0.2.

For AGAGCAGC, which “PBM E-score” value is on record?
The value was -0.218.

Which “PBM E-score” value does the source give for CAACTCGG here?
Its value is -0.0767.

With TCCATTCA as the sequence, how does the “PBM E-score” value read?
Its value is 0.022.

GACTGACC was tested. Which “PBM E-score” value did it give?
The value was -0.213.

ACCCACAA was tested. Which “PBM E-score” value did it give?
The value was 0.207.

How did the “PBM E-score” value turn out when AGCGGTCG was run?
The value was -0.271.

How did the “PBM E-score” value turn out when ACCTCCCA was run?
The value was -0.318.

Which “PBM E-score” value does the source give for AAACTTGC here?
The value was 0.158.

How did the “PBM E-score” value turn out when ATGTTCTA was run?
Its value is 0.0598.

For ATACGTCA, which “PBM E-score” value is on record?
The value was 0.0754.

How did the “PBM E-score” value turn out when CACGTACC was run?
The value was -0.0307.

ACCAGCCA was tested. Which “PBM E-score” value did it give?
Its value is -0.235.

Which “PBM E-score” value does the source give for ATCGGCCA here?
Its value is -0.205.

How did the “PBM E-score” value turn out when CGTGTCAC was run?
Its value is -0.0273.

Which “PBM E-score” value does the source give for GACGACGC here?
Its value is -0.256.

Which “PBM E-score” value does the source give for AAGGCATT here?
Its value is -0.163.

CCTTATTA was tested. Which “PBM E-score” value did it give?
Its value is 0.147.

For AATTGACT, which “PBM E-score” value is on record?
The value was 0.204.

For ACCCACTC, which “PBM E-score” value is on record?
Its value is 0.00249.

How did the “PBM E-score” value turn out when CCCCAGAG was run?
Its value is -0.386.

How did the “PBM E-score” value turn out when CAGGACTC was run?
The value was -0.158.

Which “PBM E-score” value does the source give for AAAGGTGT here?
The value was -0.0578.

For ACACCAGA, which “PBM E-score” value is on record?
The value was 0.0261.

CCAAGGGC was tested. Which “PBM E-score” value did it give?
The value was -0.0869.

Which “PBM E-score” value does the source give for AAACGTTA here?
The value was 0.114.

Which “PBM E-score” value does the source give for CGGAACCG here?
Its value is 0.144.

For CGTAACCA, which “PBM E-score” value is on record?
Its value is 0.0298.

Which “PBM E-score” value does the source give for CCTTCCCC here?
Its value is -0.118.
